Broadly, the Kd is the constant that tells how readily two partners part at equilibrium. Low readings indicate a tighter complex, high ones a looser complex. In general, koff refers to a measure of how fast the partners let go of each other. A high value points to a short-lived complex. In general, kon refers to the rate constant with which the complex forms. Read a low kon as slow association. By IC50 is commonly meant the concentration needed to halve the response being measured. Lower therefore signals greater potency in that assay.

Where a chain is given by its changes, count along the chain named.

First the molecules themselves.
B1: Z10141-ABD fusion (designed binder)
chain: AQHDEALEVDAKYAKENQGAAHEIRWLPNLTWDQRVAFIRKLQDDPSQSSELLSEAKKLNDSQAPKVDYVLAEAKVLANRELDKYGVSDYYKNLINNAKTVEGVKALIDEILAALPYVPG
notes: domain: GA3; periplasmic Z-ABD fusion
B2: Z10145-ABD fusion (designed binder)
chain: B1 chain with G19D, W32Y, R40G, Q43N
notes: as for B1
B3: Z10161-ABD fusion (designed binder)
chain: B1 chain with N17S, Q18G, G19Y, A21V, W32F, R40N
notes: as for B1
B4: Z10183-ABD fusion (designed binder)
chain: B1 chain with N17A, Q18D, G19N, A21G, D33A, V36W, R40H, Q43L
notes: as for B1
B5: Z10152-ABD fusion (designed binder)
chain: B1 chain with N17E, Q18D, G19V, W32F, D33N, V36A, R40D, Q43L
notes: as for B1
B6: Z10156-ABD fusion (designed binder)
chain: B1 chain with N17R, Q18T, G19Q, A21S, W32Y, R40N, Q43R
notes: as for B1
B7: His6-tagged Z10127 (designed binder)
chain: MGSSHHHHHHLQVDAKYAKERKDAGHEIRWLPNLTFDQRSAFIKKLEDDPSQSSELLSEAKKLNDSQAPKVD
B8: His6-tagged Z10141 (designed binder)
chain: B7 chain with R21N, K22Q, D23G, G25A, F36W, S40V, K44R, E47Q
B9: His6-tagged Z10129 (designed binder)
chain: B7 chain with R21Q, K22H, G25A, F36Y, S40V, K44R, E47H
B10: His6-tagged Z10156 (designed binder)
chain: B7 chain with K22T, D23Q, G25S, F36Y, S40V, K44N, E47R
B11: His6-tagged Z10183 (designed binder)
chain: B7 chain with R21A, K22D, D23N, F36W, D37A, S40W, K44H, E47L
B12: His6-tagged Z10140 (designed binder)
chain: B7 chain with K22S, D23A, G25A, S40V, K44L, E47T
B13: Z11948-PP013-Z03638 (designed binder)
chain: AEAKYAKEQDAAAHEIRWLPNLTFDQRVAFIHKLADDPSQSSELLSEAKKLNDSQAPKGAPGGGGSGGGGSGGGGSGGGGSTSLAEAKEAANAELDSYGVSDFYKRLIDKAKTVEGVEALKDAILAALPGTGGGGSGGGGSGGGGSGGGGSPRAEAKYAKELGWATWEIFNLPNLTGVQVKAFIDKLRDDPSQSSELLSEAKKLNDSQAPK
notes: also called Z11948 in fusion with PP013-Z03638
B14: Z11947-PP013-Z03638 (designed binder)
chain: B13 chain with Q9W, D10M, A11R, A35E
notes: also called Z11947 in fusion with PP013-Z03638
B15: Z11946-PP013-Z03638 (designed binder)
chain: B13 chain with Q9F, D10E, A11S, F24Y, A35S
notes: also called Z11946 in fusion with PP013-Z03638

For one assay, the target named is T1, human PSMA (in house produced) (human, UniProt Q04609 44-750, limits assumed).
T1 construct: Biotinylated
T1 sequence (Q04609 44-750 limits assumed): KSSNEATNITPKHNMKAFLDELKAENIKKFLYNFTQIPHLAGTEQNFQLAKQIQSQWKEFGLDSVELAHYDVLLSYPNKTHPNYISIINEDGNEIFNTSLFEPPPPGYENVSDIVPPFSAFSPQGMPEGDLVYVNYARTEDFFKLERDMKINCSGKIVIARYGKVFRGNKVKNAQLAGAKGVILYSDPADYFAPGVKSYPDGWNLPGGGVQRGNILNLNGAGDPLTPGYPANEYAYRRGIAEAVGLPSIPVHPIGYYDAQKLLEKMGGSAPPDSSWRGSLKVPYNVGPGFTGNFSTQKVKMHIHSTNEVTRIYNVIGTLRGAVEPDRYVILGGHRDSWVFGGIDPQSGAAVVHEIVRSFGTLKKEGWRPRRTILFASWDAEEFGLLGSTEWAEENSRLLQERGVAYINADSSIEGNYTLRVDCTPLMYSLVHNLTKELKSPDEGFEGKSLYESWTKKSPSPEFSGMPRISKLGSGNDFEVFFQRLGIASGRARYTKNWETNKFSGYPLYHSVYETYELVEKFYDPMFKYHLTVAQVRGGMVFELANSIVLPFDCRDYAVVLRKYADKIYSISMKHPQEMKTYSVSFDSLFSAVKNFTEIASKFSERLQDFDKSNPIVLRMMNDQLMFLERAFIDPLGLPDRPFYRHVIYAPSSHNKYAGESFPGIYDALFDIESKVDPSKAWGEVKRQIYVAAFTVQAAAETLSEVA
The assay is described as follows: ELISA, pH 6.0 and pH 7.4. (In an ELISA, binding on a coated surface is turned into a signal by an enzyme label.)
As for B1, the binding result is “no binding (tested: 2 µg/ml)”.

As for B2, the binding result was “no binding (tested: 2 µg/ml)”.

Turning to B3, the binding result is “no binding (tested: 2 µg/ml)”.

For B4, the binding result was “no binding (tested: 2 µg/ml)”.

Turning to B5, the binding result is given as “no binding (tested: 2 µg/ml)”.

With B6, the binding result is reported as “no binding (tested: 2 µg/ml)”.

Another assay has as its target T2, human FcRn: extracellular domain of human αFcRn in complex with human β2-microglobulin, soluble, produced in … (human, UniProt P55899 24-290; P16213 21-119).
T2 construct: Ig kappa leader cleaved upon secretion; Biotinylated for ELISA, amine coupled for Biacore; also called hFcRn; not shown: C-terminal GS-linker and FLAG tag; C-terminal GS-linker and His6 tag
The assay is described as follows: Biacore, human FcRn immobilized, 250 nM, pH 6.0. The text has this:
(§1) One flow cell surface on the chip was activated and deactivated for use as blank during analyte injections.
B7: the binding result is recorded as “binds”.

In the case of B8, the binding result is given as “binds”.

B9: the binding result is “binds”.

Another assay addresses T2, human FcRn: extracellular domain of …. The assay is described as follows: Biacore, human FcRn immobilized, pH 6.0, Langmuir 1:1. The method, then: as §1
Kinetic constants were calculated from the sensorgrams using the Langmuir 1:1 model of BiaEvaluation software 4.1 (GE Healthcare).
B10: binding was put at a Kd of 370 nM, the koff was found to be 0.28 s⁻¹ and the kon was 760000 M⁻¹ s⁻¹.

Take B11: the dissociation constant (Kd) is 130 nM, the koff worked out at 0.13 s⁻¹ and the kon came to 1e+06 M⁻¹ s⁻¹.

B12 yielded a Kd of 86 nM, an off-rate (koff) of 0.12 s⁻¹ and a kon of 1.4e+06 M⁻¹ s⁻¹.

The next assay shares this target. Nature of the assay: Biacore, human FcRn immobilized, pH 6.0, fusion to PP013-Z03638. (In general: Surface plasmon resonance follows binding to a sensor surface in real time, without labels.)
Molecule B13 gave a dissociation constant Kd of 62 nM, a koff of 0.047 s⁻¹ and a kon of 773000 M⁻¹ s⁻¹.

As for B14, the Kd was found to be 98 nM, the koff was 0.064 s⁻¹ and the kon amounted to 654000 M⁻¹ s⁻¹.

The molecule B15 displayed a Kd of 820 nM, an off-rate constant (koff) of 0.275 s⁻¹ and an on-rate constant (kon) of 335000 M⁻¹ s⁻¹.

For the next assay the target is unchanged. Nature of the assay: ELISA, Z-ABD captured on anti-ABD, biotinylated human FcRn titrated, pH 6.0. The procedure:
After washing as described above, 50 μl ImmunoPure TMB substrate (Thermo Scientific, cat. no. 34021) was added to the wells and the plates were treated according to the manufacturer's recommendations.
With B1, the dissociation constant Kd was 21.2 nM.

Regarding B2, binding was put at a Kd of 42 nM.

As for B3, the Kd turned out to be 163 nM.

In turn, B4 showed a Kd of 10.9 nM.

B5 yielded a dissociation constant (Kd) of 24.6 nM.

In turn, B6 had an equilibrium dissociation constant (Kd) of 21.3 nM.

Another assay concerns the target T3, human FcRn (Biorbyt, cat. no. orb84388) (human, UniProt P55899 24-297; P61769 21-119, limits assumed).
T3 construct: Bought protein; Biotinylated in AlphaLISA and ELISA; also called biotinylated human FcRn
The assay is described as follows: AlphaLISA blocking of IgG (Roactemra) binding to biotinylated human FcRn, pH 6.0. The procedure:
Stepwise serial dilutions 1:3 of His-tagged Z variants to final concentrations of 250 nM to 38 pM were made in a 384-well plate (Perkin Elmer, cat. no. G6005350) and incubated for 45 min with 10 nM biotinylated human FcRn (Biorbyt, cat. no. orb84388; biotinylated essentially as described in Example 2) in AlphaLISA buffer (Perkin Elmer, cat. no. AL000F) adjusted to pH 6.0 using HCl. IgG-coated Acceptor beads were added to a final concentration of 10 μM and incubated for 45 min. Finally, streptavidin coated Donor beads (Perkin Elmer, cat. no. 6772002) were added to a final concentration of 40 μg/ml and incubated for 30 min. All incubations were performed at RT in the dark. The plate was analyzed in the EnSpire instrument and the IC50 values were calculated using GraphPad Prism 5.
For orientation: Bead proximity is the source of the signal in Alpha formats.
In turn, B11 showed an IC50 of 39 nM.

As to B12, the concentration for half-maximal inhibition (IC50) is 56 nM.

Values taken from US20160031967A1 (Affibody, published 2016).
